The IC50 comes from the fitted curve, where viability falls to half of the control; a fit beyond the top or the lowest dose is shown as a bound at that dose. For AUC the same curve is integrated over the 256-fold range of doses and scaled to a fraction: 1 means no effect, lower means more sensitive. For part of these data: A top dose marked as inferred was derived from the fitted curves, not read from the paper.
Legend:
Experiment in all cases: Viability of human cancer cell lines after 72 h of drug (GDSC screen)
Temsirolimus = compound: CO[C@H]1C[C@@H]2CC[C@@H](C)[C@@](O)(O2)C(=O)C(=O)N2CCCC[C@H]2C(=O)O[C@H]([C@H](C)C[C@@H]2CC[C@@H](OC(=O)C(C)(CO)CO)[C@H](OC)C2)CC(=O)[C@H](C)/C=C(\C)[C@@H](O)[C@@H](OC)C(=O)[C@H](C)C[C@H](C)/C=C/C=C/C=C/1C [Temsirolimus]; conditions: top dose 0.2 µM
Procedure: (§1)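 Human cancer cell lines in 384-well plates, medium with 10% serum, drug for 72 h over a 256-fold dose range (nine 2-fold or five 4-fold steps up to the top dose). Adherent lines were fixed and stained with the nucleic acid dye Syto60, suspension lines read with resazurin; signal relative to control wells, capped at 0 and 100%. One two-parameter sigmoid per drug and line, fitted in a mixed model over all curves with the slope shared within a line.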

SL 0101-1 = compound: CC(=O)O[C@@H]1[C@@H](OC(C)=O)[C@@H](O)[C@H](Oc2c(-c3ccc(O)cc3)oc3cc(O)cc(O)c3c2=O)O[C@H]1C [SL 0101-1]; conditions: top dose 10 µM; top dose inferred
Procedure: as §1

XMD15-27 = compound: C=CC(=O)Nc1ccc(C(=O)c2sc(Nc3ccc(N4CCN(C)CC4)cc3OC)nc2N)cc1 [XMD15-27]; conditions: top dose 10.24 µM; top dose inferred
Procedure: as §1

| Cell Line | AUC (Temsirolimus) | IC50 (Temsirolimus) [µM] | AUC (SL 0101-1) | IC50 (SL 0101-1) [µM] | AUC (XMD15-27) | IC50 (XMD15-27) [µM] |
| --- | --- | --- | --- | --- | --- | --- |
| P31-FUJ (acute myeloid leukaemia, suspension) | 0.985 | > 0.2 | 0.996 | > 10 | 0.995 | > 10.2 |
| P32-ISH (Burkitt lymphoma, suspension) | 0.934 | 0.197 | 0.993 | > 10 | 0.973 | > 10.2 |
| PA-TU-8902 (pancreas, adherent) | 0.807 | 0.124 | 0.977 | > 10 | 0.984 | > 10.2 |
| PANC-02-03 (pancreas, adherent) | 0.825 | 0.154 | 0.973 | > 10 | 0.981 | > 10.2 |
| PANC-03-27 (pancreas, adherent) | 0.952 | > 0.2 | 0.979 | > 10 | 0.989 | > 10.2 |
| PANC-04-03 (pancreas, adherent) | 0.901 | > 0.2 | 0.943 | > 10 | 0.977 | > 10.2 |
| PC-3 [JPC-3] (lung adenocarcinoma, adherent) | 0.876 | > 0.2 | 0.981 | > 10 | 0.981 | > 10.2 |
| PC-14 (lung adenocarcinoma, adherent) | 0.84 | 0.117 | 0.985 | > 10 | 0.982 | > 10.2 |
| PCI-4B (head and neck, adherent) | 0.565 | 0.0187 | 0.974 | > 10 | 0.965 | > 10.2 |
| PCI-6A (head and neck, adherent) | 0.911 | > 0.2 | 0.982 | > 10 | 0.976 | > 10.2 |
| PCI-15A (head and neck, adherent) | 0.954 | > 0.2 | 0.896 | > 10 | 0.987 | > 10.2 |
| PCI-30 (head and neck, adherent) | 0.652 | 0.0364 | 0.972 | > 10 | 0.977 | > 10.2 |
| PE/CA-PJ15 (head and neck, adherent) | 0.797 | 0.103 | 0.899 | > 10 | 0.985 | > 10.2 |
| PEO1 (ovary, adherent) | 0.882 | > 0.2 | 0.987 | > 10 | 0.984 | > 10.2 |
| PF-382 (T-cell lymphoblastic leukaemia, suspension) | 0.866 | 0.142 | 0.989 | > 10 | 0.921 | > 10.2 |
| PFSK-1 (medulloblastoma, adherent) | 0.471 | 0.0104 | 0.977 | > 10 | 0.984 | > 10.2 |
| PL4 (pancreas, adherent) | 0.907 | > 0.2 | 0.987 | > 10 | 0.987 | > 10.2 |
| PSN1 (pancreas, adherent) | 0.9 | 0.185 | 0.97 | > 10 | 0.986 | > 10.2 |

| Cell Line | AUC (Temsirolimus) | IC50 (Temsirolimus) [µM] | AUC (SL 0101-1) | IC50 (SL 0101-1) [µM] | AUC (XMD15-27) | IC50 (XMD15-27) [µM] |
| --- | --- | --- | --- | --- | --- | --- |
| QGP-1 (pancreas, adherent) | 0.949 | > 0.2 | 0.977 | > 10 | 0.979 | > 10.2 |
| QIMR-WIL (acute myeloid leukaemia, suspension) | 0.737 | 0.0578 | 0.987 | > 10 | 0.93 | > 10.2 |
| RC-K8 (B-cell lymphoma, suspension) | 0.869 | 0.145 | 0.989 | > 10 | 0.991 | > 10.2 |
| RCC10RGB (kidney, adherent) | 0.941 | > 0.2 | 0.961 | > 10 | 0.971 | > 10.2 |
| RCC-AB (kidney, adherent) | 0.881 | > 0.2 | 0.981 | > 10 | 0.958 | > 10.2 |
| RCC-FG2 (kidney, adherent) | 0.549 | 0.0177 | 0.971 | > 10 | 0.976 | > 10.2 |
| RCC-JF (kidney, adherent) | 0.559 | 0.0185 | 0.981 | > 10 | 0.969 | > 10.2 |
| RCC-JW (kidney, adherent) | 0.249 | 0.00232 | 0.986 | > 10 | 0.91 | > 10.2 |
| RCC-MF (kidney, adherent) | 0.437 | 0.00799 | 0.972 | > 10 | 0.971 | > 10.2 |
| RCM-1 (large intestine, adherent) | 0.977 | > 0.2 | 0.985 | > 10 | 0.985 | > 10.2 |
| REH (B-cell leukaemia, suspension) | 0.855 | 0.149 | 0.985 | > 10 | 0.907 | > 10.2 |
| RERF-LC-KJ (lung adenocarcinoma, adherent) | 0.788 | 0.0903 | 0.987 | > 10 | 0.987 | > 10.2 |
| RERF-LC-MS (lung adenocarcinoma, adherent) | 0.92 | > 0.2 | 0.987 | > 10 | 0.986 | > 10.2 |
| RERF-LC-Sq1 (lung squamous cell carcinoma, adherent) | 0.735 | 0.0824 | 0.975 | > 10 | 0.972 | > 10.2 |
| RF-48 (stomach, adherent) | 0.79 | 0.101 | 0.985 | > 10 | 0.949 | > 10.2 |
| RH-1 (rhabdomyosarcoma, adherent) | 0.919 | > 0.2 | 0.978 | > 10 | 0.979 | > 10.2 |
| RKN (ovary, adherent) | 0.37 | 0.00534 | 0.985 | > 10 | 0.981 | > 10.2 |
| RKO (large intestine, adherent) | 0.759 | 0.0652 | 0.947 | > 10 | 0.98 | > 10.2 |
